Experimental data reported in EP0183129A1, “Quinolonecarboxylic acid derivatives” (KYORIN PHARMACEUTICAL CO., LTD., priority 1984, dated 1986).
Read-outs that look alike come from different tables or passages of the source.

What was measured:
[1] = Urinary and bile excretion after oral administration, bioassay by cup method; assay type: in vivo; settings: rat, fasted rats, 10 mg/kg oral, Mean ± S.D. (n=5)
[2] = Absorption and distribution: concentration in blood and organs after oral administration, bioassay by cup method; assay type: in vivo; settings: rat, rats, fasted, 10 mg/kg oral, Mean ± S.D. (n=5); for concentration at 0.5 h: 1/2 hr after administration; for concentration at 1 h: 1 hr after administration; for concentration at 2 h: 2 hr after administration; for concentration at 4 h: 4 hr after administration; for concentration at 6 h: 6 hr after administration; for concentration at 8 h: 8 hr after administration
Procedure: Experiment-4 Absorption, distribution and excretion
The blood, organs, bile and urine of the fasted rats, which had received the dose of 10 mg/kg of the test compound by oral administration, were sampled over a period of time and the proportion of active compound was determined bacteriologically by the cup method using E. coli NIHJ JC-2. All those results make it possible to guarantee a greater therapeutic action of the present compound than that of the reference compound because of higher concentration of active compound in comparition with the reference compound.

[3] = kidney, read-out: Concentration in organs: Kidney
[4] = liver, read-out: Concentration in organs: Liver
[5] = lung, read-out: Concentration in organs: Lung
[6] = serum, read-out: Concentration in organs: Serum

O=C(O)c1cn(C2CC2)c2cc(N3CCNCC3)c(F)cc2c1=O [CFLX, Ciprofloxacin, reference compound]
concentration at 3 h ([1]; bile 0 ~ 3 hr, read-out: Concentration, bile): 11100 ± 4400 ng/mL | dose excreted at 3 h ([1]; bile 0 ~ 3 hr, read-out: Recovery, bile): 1.3 ± 0.7% | dose excreted at 24 h ([1]; bile 0 ~ 24 hr, read-out: Recovery, bile): 2.5 ± 0.8% | concentration at 6 h ([1]; bile 3 ~ 6 hr, read-out: Concentration, bile): 5900 ± 2600 ng/mL | concentration at 24 h ([1]; bile 6 ~ 24 hr, read-out: Concentration, bile): 1500 ± 600 ng/mL | concentration at 3 h ([1]; urine 0 ~ 3 hr, read-out: Concentration, urine): 101000 ± 36000 ng/mL | dose excreted at 3 h ([1]; urine 0 ~ 3 hr, read-out: Recovery, urine): 3.9 ± 2.9% | dose excreted at 24 h ([1]; urine 0 ~ 24 hr, read-out: Recovery, urine): 8.9 ± 1.8% | concentration at 6 h ([1]; urine 3 ~ 6 hr, read-out: Concentration, urine): 57000 ± 19000 ng/mL | concentration at 24 h ([1]; urine 6 ~ 24 hr, read-out: Concentration, urine): 12000 ± 6000 ng/mL | concentration at 0.5 h [2, 3]: 3580 ± 2610 ng/g | concentration at 1 h [2, 3]: 2050 ± 640 ng/g | concentration at 2 h [2, 3]: 1120 ± 340 ng/g | concentration at 4 h [2, 3]: 210 ± 20 ng/g | concentration at 6 h [2, 3]: 100 ± 40 ng/g | concentration at 8 h [2, 3]: 60 ± 20 ng/g | concentration at 0.5 h [2, 4]: 5170 ± 2530 ng/g | concentration at 1 h [2, 4]: 3280 ± 980 ng/g | concentration at 2 h [2, 4]: 1490 ± 370 ng/g | concentration at 4 h [2, 4]: 390 ± 50 ng/g | concentration at 6 h [2, 4]: 210 ± 110 ng/g | concentration at 8 h [2, 4]: 150 ± 50 ng/g | concentration at 0.5 h [2, 5]: 860 ± 580 ng/g | concentration at 1 h [2, 5]: 600 ± 190 ng/g | concentration at 2 h [2, 5]: 290 ± 20 ng/g | concentration at 4 h [2, 5]: 140 ± 20 ng/g | concentration at 6 h [2, 5]: 70 ± 30 ng/g | concentration at 8 h [2, 5]: 60 ± 10 ng/g | concentration at 0.5 h [2, 6]: 470 ± 280 ng/mL | concentration at 1 h [2, 6]: 380 ± 110 ng/mL | concentration at 2 h [2, 6]: 250 ± 50 ng/mL | concentration at 4 h [2, 6]: 90 ± 30 ng/mL | concentration at 6 h [2, 6]: 50 ± 10 ng/mL | concentration at 8 h [2, 6]: 30 ± 10 ng/mL
